The source of these data is PMC7819943, “Rice protein-binding microarrays: a tool to detect cis-acting elements near promoter regions in rice”.

The other results are listed elsewhere or left out.

The assay deals with T1, OsWOX13 (Oryza sativa, UniProt Q5QMM3 1-267).
T1 sequence: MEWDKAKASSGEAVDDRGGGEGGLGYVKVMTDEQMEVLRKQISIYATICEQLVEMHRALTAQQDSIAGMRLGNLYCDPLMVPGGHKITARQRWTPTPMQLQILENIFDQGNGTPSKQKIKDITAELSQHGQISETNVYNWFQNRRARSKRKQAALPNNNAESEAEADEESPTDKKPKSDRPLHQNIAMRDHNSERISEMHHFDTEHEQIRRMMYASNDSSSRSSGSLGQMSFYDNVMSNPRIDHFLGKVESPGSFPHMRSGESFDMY
The experiment in a line: protein-binding microarray (RPBM); PBS, 2% BSA, 51.3 ng/ul salmon testes DNA, 50 uM zinc acetate, 200 nM TF, 25 C, 1 h; high values mean tight binding. As to conditions: protein: recombinant; tags: N-terminal polyhistidine and DsRed monomer fusion (pET32a); label: CyDye5-dUTP incorporated in the synthesized complementary strand; 3' TTTTT single-stranded linker to array surface; dsDNA, one strand shown. In outline:
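The binding signal is fluorescence intensity per feature, in arbitrary units, read on an Axon 4000B scanner. Polyhistidine- and DsRed-tagged transcription factors (N-terminal fusions) from E. coli BL21-CodonPlus were purified on Ni–NTA and applied at 200 nM for 1 h at 25 °C to a double-stranded, BSA-blocked custom Agilent array in buffer with 50 µM zinc acetate.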
As for “TCACTAATCAATCTCTCGCGTTCTTGGCCGCCGTCTCCATCGGAGTCACCTAGTGCAG”, the binding signal was 21300 fluorescence intensity (a.u.). Next, “GCTAATAATTTTGATTTAGAACTAGAGGCTAAGCCAGAGACGGAGTCACCTAGTGCAG”: 20100 fluorescence intensity (a.u.).

Regarding “AATTGACTGGTTTAATCTCTGTTCGTACCCAAAATATAGCCGGAGTCACCTAGTGCAG”, the binding signal was 25000 fluorescence intensity (a.u.). For “ATAAATTTTATAGTTTGCCATAGTTTTATCTAATATAGTTCGGAGTCACCTAGTGCAG” the value was 3890 fluorescence intensity (a.u.). With “GAGAATAGTTATAATTGGTTGATAGGAGAGGGTAGGTAGACGGAGTCACCTAGTGCAG”, the binding signal is 10400 fluorescence intensity (a.u.). For “ACTTCTAATCACCCTTTCTTTAATGAGGAACATCTAAATACGGAGTCACCTAGTGCAG” the value was 5460 fluorescence intensity (a.u.).

As to “TGACCACTTGATGGATTGTTAGAAGTTTCAGTTGGCAGTACGGAGTCACCTAGTGCAG”, the binding signal is 7400 fluorescence intensity (a.u.).

Turning to “TTTTGACATTAATCTCTTGGTGTTCTTCTCTTTGTCTGCTCGGAGTCACCTAGTGCAG”, the binding signal was 5110 fluorescence intensity (a.u.). For “TTTAATTAATCCCGTCTCCTCATTCGTCGCCGCCCTCGCACGGAGTCACCTAGTGCAG” the value was 26500 fluorescence intensity (a.u.). For “GCATGACTGATTGGTCACAAGGTTCTCTGCCCCTTGCCTGCGGAGTCACCTAGTGCAG” the value was 37800 fluorescence intensity (a.u.). For “ATTTGTATATTAAATTATCAGTTTGTGTACCTCGGCTGATCGGAGTCACCTAGTGCAG” the value was 6080 fluorescence intensity (a.u.); for “GATTAAAGCATGATTAATTACTAAGTATTAACCATTGTAACGGAGTCACCTAGTGCAG”, 9280 fluorescence intensity (a.u.).

For the sequence “CAGTGACATGTGTATGATAGATGGGACTAGGTATTAATTGCGGAGTCACCTAGTGCAG”, the binding signal was 12000 fluorescence intensity (a.u.). As to “CATTAATTAACTTGACTCCATATTTAACTACTCTGCTTCCCGGAGTCACCTAGTGCAG”, the binding signal was 30400 fluorescence intensity (a.u.). Take “ATCTTTAATTAGGATTAGGAAGAAGAGCCGAAGGGACTCGCGGAGTCACCTAGTGCAG”: the binding signal was 16100 fluorescence intensity (a.u.). Turning to “GTTGTACTTTAATTTGATATGATGATGGTTATGTTATCATCGGAGTCACCTAGTGCAG”, the binding signal was 6410 fluorescence intensity (a.u.). Regarding “ATGTAATTTGTTTTATTATTAGACTACGATTAATTTACGCCGGAGTCACCTAGTGCAG”, the binding signal is 32300 fluorescence intensity (a.u.). In the case of “CGGCCCATCGGCTGATTGAAACCATGGGCTGGTATATTCGCGGAGTCACCTAGTGCAG”, the binding signal was 16800 fluorescence intensity (a.u.). For “GACCGGATTGATTTCATAAGAATTCAAATCGAATACTTGTCGGAGTCACCTAGTGCAG” the value was 29400 fluorescence intensity (a.u.). Turning to “AACGTATTTGGCCCAATTAAGTATATACATATGTAATGCGCGGAGTCACCTAGTGCAG”, the binding signal is 3420 fluorescence intensity (a.u.). Next, “CTTAAATGAAGCATTTTGTCTATTGGCGTTGTAGTAAGGACGGAGTCACCTAGTGCAG”: 5220 fluorescence intensity (a.u.); “TCTTTGAATTAGCTGCTAAATTGGGCAAAATTCCGCTTGCCGGAGTCACCTAGTGCAG”: 8240 fluorescence intensity (a.u.). Regarding “TTTTACCGGTAATTGGTGCCTCACATATTGATACTTCCAACGGAGTCACCTAGTGCAG”, the binding signal is 22600 fluorescence intensity (a.u.).

As for “CTTAATCAAGCTAATGATTTTCTCATTTTACATGTTTTACCGGAGTCACCTAGTGCAG”, the binding signal is 12500 fluorescence intensity (a.u.). For “TTAGATTGGTTATAGATGAATTGGAGCTAGTAGTGGGTTGCGGAGTCACCTAGTGCAG” the value was 56200 fluorescence intensity (a.u.); for “AAAATTAACACCAATCATAATTTCATAATAATCCATTTCACGGAGTCACCTAGTGCAG”, 36900 fluorescence intensity (a.u.).

Turning to “TAATAATAAATAATCAACAAACACACACGACGTATTGTAACGGAGTCACCTAGTGCAG”, the binding signal was 4850 fluorescence intensity (a.u.).

As to “GAAAATTGAATATAAATTCCCTGAGTTTGCCGATAAGTTCCGGAGTCACCTAGTGCAG”, the binding signal was 21800 fluorescence intensity (a.u.). As to “CCGTGATTAGCGACATTGCTGTGTGCAACGTTTGTTCCTTCGGAGTCACCTAGTGCAG”, the binding signal was 37600 fluorescence intensity (a.u.). In the case of “CATGTAATAGATGGGATGGGCTTGAACACACATGTAATGTCGGAGTCACCTAGTGCAG”, the binding signal was 8090 fluorescence intensity (a.u.). For “CTATAATTTTGTTAGACTTATACCATAGTATGTGGTGTTTCGGAGTCACCTAGTGCAG” the value was 20900 fluorescence intensity (a.u.); for “CCAAGCACTAATCACGATTAGCCTTCTGACTAATCACACTCGGAGTCACCTAGTGCAG”, 9300 fluorescence intensity (a.u.).

As to “GTAATGTTGACAGCGTGGATAACGACAAACAATTATTCGGCGGAGTCACCTAGTGCAG”, the binding signal was 7350 fluorescence intensity (a.u.).

Take “GTCCATGATTAGCCGTAAGTGCTACAGTAACCCACATGTACGGAGTCACCTAGTGCAG”: the binding signal was 19100 fluorescence intensity (a.u.). For “GCGTCCATCTAATCTAATCTAACCACCCTGCACGAATCGCCGGAGTCACCTAGTGCAG” the value was 8750 fluorescence intensity (a.u.); for “GATCAAATAATATTTGATTTAAGACAAACCCAGACAGCTACGGAGTCACCTAGTGCAG”, 3520 fluorescence intensity (a.u.).

Turning to “GTGGGTAATTTGTTGCAAAAGAATATTTCAATTCACTGCACGGAGTCACCTAGTGCAG”, the binding signal is 13400 fluorescence intensity (a.u.). Next, “TTTGACCGGCTCATCTATCTCGCCTTTTAACTAAACACACCGGAGTCACCTAGTGCAG”: 3230 fluorescence intensity (a.u.). With “TATATATATATCACCAATCAAACCTGGCCAAACTTGCTTGCGGAGTCACCTAGTGCAG”, the binding signal is 4610 fluorescence intensity (a.u.). Next, “CTCTAAAAGAGCTAATTAGAATAGAGTTAATGACGGTAGTCGGAGTCACCTAGTGCAG”: 9300 fluorescence intensity (a.u.); “TAAATTTCATGTTATAAATTATATATGAATATAAGGGTTTCGGAGTCACCTAGTGCAG”: 3690 fluorescence intensity (a.u.). As to “TCAATTCGTCATATAATAATTGCTTACTATACTATTAGTACGGAGTCACCTAGTGCAG”, the binding signal is 3550 fluorescence intensity (a.u.).
